Test results taken from a collection of fitness landscapes (doi:10.1016/j.celrep.2020.107928).
In all, about 81,000 sequences were measured (“one-hybrid fitness for binding NBS DNA”: median about -0.1, highest 2% from about 0.36 on). Some of the results follow.

B1: Caulobacter ParB omega fusion; a variant is named by its letters at X, in order, B8GW30 (parent)
chain: MESVVVGEPGMSEGRRGLGRGLSALLGEVDAAPAQAPGEQLGGSREAPIEILQRNPDQPRRTFREEDLEDLSNSIREKGVLQPILVRPSPDTAGEYQIVAGERAWRAAQRAGLKTVPIMVRELDDLAVLEIGIIENVQRADLNVLEEALSYKVLMEKFERTQENIAQTIGKSXSHVANXMRLLXLPDEVQSYLVSGELTAXHARAIAAAADPVALAKQIIEGGLSVRETEALARKAPNLSAGKSKGGRPPRVKDTDTQALESDLSSVLGLDVSIDHRGSTGTLTITYATLEQLDDLCNRLTRGI

Variants of: B1
Assay: one-hybrid fitness for binding NBS DNA (the Noc-binding site; scaled: cognate 1, non-cognate 0); higher = stronger binding
Details: with NBS DNA site
Outline: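 In E. coli USO, a HIS3 reporter with its site placed 19 bp from the promoter was used to select Caulobacter ParB variants randomised at four specificity codons. Growth lasted 48 hours at 37°C on histidine-free M9 containing 0.1 mM IPTG and 5 mM 3-AT. Fitness was taken as the log change in variant-to-wild-type read ratio from Illumina sequencing of pre- and post-selection plasmids, rescaled between the non-cognate and cognate sites.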

| Variant | one-hybrid fitness for binding NBS DNA |
| --- | --- |
| GPLT | ≤ 0.2 |
| TVCR | ≤ 0.2 |
| PRMY | ≤ 0.2 |
| RWPA | ≤ 0.2 |
| QCRM | 0.505 |
| CHAI | ≤ 0.2 |
| QHCV | ≤ 0.2 |
| CSFN | ≤ 0.2 |
| QQKA | 0.628 |
| SYCW | ≤ 0.2 |
| KTAY | ≤ 0.2 |
| TDYV | ≤ 0.2 |
| KNSI | ≤ 0.2 |
| QSGQ | ≤ 0.2 |
| SVTG | ≤ 0.2 |
| NRMR | ≤ 0.2 |
| QSYC | ≤ 0.2 |
| YIRS | ≤ 0.2 |
| SEPD | ≤ 0.2 |
| IAAL | ≤ 0.2 |
| TTPM | ≤ 0.2 |
| MDPS | ≤ 0.2 |
| LTME | ≤ 0.2 |
| WGGG | ≤ 0.2 |

| Variant | one-hybrid fitness for binding NBS DNA |
| --- | --- |
| VPQV | ≤ 0.2 |
| KNEG | ≤ 0.2 |
| RTND | ≤ 0.2 |
| QKMN | ≤ 0.2 |
| ISKL | ≤ 0.2 |
| YGWG | ≤ 0.2 |
| QDCR | ≤ 0.2 |
| RKGY | 0.209 |
| NCYC | ≤ 0.2 |
| TGNR | ≤ 0.2 |
| SQCC | ≤ 0.2 |
| PEGC | ≤ 0.2 |
| KKGL | ≤ 0.2 |
| QRGC | 0.402 |
| HGSG | ≤ 0.2 |
| VSYR | ≤ 0.2 |
| EIAF | 0.266 |
| HPRY | ≤ 0.2 |
| LALQ | ≤ 0.2 |
| AMGA | ≤ 0.2 |
| RESV | ≤ 0.2 |
| NHHP | ≤ 0.2 |
| LCWA | ≤ 0.2 |
| RGIE | ≤ 0.2 |

| Variant | one-hybrid fitness for binding NBS DNA |
| --- | --- |
| NHYG | ≤ 0.2 |
| LAIG | ≤ 0.2 |
| RDAV | ≤ 0.2 |
| AAYP | ≤ 0.2 |
| TQLR | ≤ 0.2 |
| HYGS | ≤ 0.2 |
| RNNY | ≤ 0.2 |
| VGLC | ≤ 0.2 |
| CQLG | ≤ 0.2 |
| AYPW | ≤ 0.2 |
| PIIT | ≤ 0.2 |
| ALIT | ≤ 0.2 |
| MATP | ≤ 0.2 |
| LNKR | ≤ 0.2 |
| SNHE | ≤ 0.2 |
| AVLQ | ≤ 0.2 |
| KWSC | ≤ 0.2 |
| ITFC | ≤ 0.2 |
| PRAY | ≤ 0.2 |
| NNTR | ≤ 0.2 |
| WKTG | ≤ 0.2 |
| QEVV | ≤ 0.2 |
| VLEL | ≤ 0.2 |
| ARND | ≤ 0.2 |

| Variant | one-hybrid fitness for binding NBS DNA |
| --- | --- |
| SNHI | ≤ 0.2 |
| ETMT | ≤ 0.2 |
| NPYW | ≤ 0.2 |
| QQDS | 0.282 |
| RMYG | ≤ 0.2 |
| WLTW | ≤ 0.2 |
| LLIN | ≤ 0.2 |
| HTHH | ≤ 0.2 |
| PYLD | ≤ 0.2 |
| SSQS | ≤ 0.2 |
| DYMC | ≤ 0.2 |
| LASW | ≤ 0.2 |
| SCTY | ≤ 0.2 |
| MRRF | ≤ 0.2 |
| EIGA | ≤ 0.2 |
| TPSV | ≤ 0.2 |
| ANSG | ≤ 0.2 |
| FAMG | ≤ 0.2 |
| CVRP | ≤ 0.2 |
| IERS | ≤ 0.2 |
| VPNM | ≤ 0.2 |
| LMTI | ≤ 0.2 |
| RQPD | ≤ 0.2 |
| RRRW | 0.285 |

| Variant | one-hybrid fitness for binding NBS DNA |
| --- | --- |
| TYPR | ≤ 0.2 |
| DHKA | ≤ 0.2 |
| PLAA | ≤ 0.2 |
| VWSH | ≤ 0.2 |
| ILQT | ≤ 0.2 |
| SLLM | ≤ 0.2 |
| LTPA | ≤ 0.2 |
| KREL | ≤ 0.2 |
| HYRC | ≤ 0.2 |
| GFCG | ≤ 0.2 |
| DMLT | ≤ 0.2 |
| KGTY | ≤ 0.2 |
| DRTF | ≤ 0.2 |
| VLHW | ≤ 0.2 |
| RLPP | ≤ 0.2 |
| RGDT | ≤ 0.2 |
| HPCS | ≤ 0.2 |
| EWPR | ≤ 0.2 |
| NRDH | ≤ 0.2 |
| LLLD | ≤ 0.2 |
| AEGG | ≤ 0.2 |
| GINS | ≤ 0.2 |
| SALF | ≤ 0.2 |
| NGPQ | ≤ 0.2 |

| Variant | one-hybrid fitness for binding NBS DNA |
| --- | --- |
| PCPL | ≤ 0.2 |
| GCVG | ≤ 0.2 |
| LYHW | ≤ 0.2 |
| VGIC | ≤ 0.2 |
| YNSR | ≤ 0.2 |
| PQCR | ≤ 0.2 |
| VVES | ≤ 0.2 |
| GKAT | ≤ 0.2 |
| ESTV | ≤ 0.2 |
| GNCY | ≤ 0.2 |
| NSGR | ≤ 0.2 |
| APIS | ≤ 0.2 |
| TIIG | ≤ 0.2 |
| SFKQ | ≤ 0.2 |
| CAQG | ≤ 0.2 |
| ESQT | ≤ 0.2 |
| SHSM | ≤ 0.2 |
| MKAT | ≤ 0.2 |
| MSTR | ≤ 0.2 |
| DPLS | ≤ 0.2 |
| NVQC | ≤ 0.2 |
| YGLR | ≤ 0.2 |
| LTQT | ≤ 0.2 |
| RMTV | ≤ 0.2 |

| Variant | one-hybrid fitness for binding NBS DNA |
| --- | --- |
| KLDS | ≤ 0.2 |
| PAFN | ≤ 0.2 |
| NTTL | ≤ 0.2 |
| RTHF | ≤ 0.2 |
| QELS | ≤ 0.2 |
| MYNC | ≤ 0.2 |
| TFQT | ≤ 0.2 |
| QNNL | ≤ 0.2 |
| FYYT | ≤ 0.2 |
| PSVT | ≤ 0.2 |
| RSWK | ≤ 0.2 |
| QVVC | ≤ 0.2 |
| GAAW | ≤ 0.2 |
| SIPG | ≤ 0.2 |
| LNLA | ≤ 0.2 |
| IPAG | ≤ 0.2 |
| GLQS | ≤ 0.2 |
| WYLY | ≤ 0.2 |
| TGNI | ≤ 0.2 |
| TVVM | ≤ 0.2 |
| SPIH | ≤ 0.2 |
| ILQR | ≤ 0.2 |
| KLVK | ≤ 0.2 |
| SRRK | ≤ 0.2 |

| Variant | one-hybrid fitness for binding NBS DNA |
| --- | --- |
| RLGM | ≤ 0.2 |
| HMGI | ≤ 0.2 |
| VIYC | ≤ 0.2 |
| PKQC | ≤ 0.2 |
| NLAG | ≤ 0.2 |
| LPSA | ≤ 0.2 |
| NVLA | ≤ 0.2 |
| GTLE | ≤ 0.2 |
| DRTQ | ≤ 0.2 |
| QMDD | ≤ 0.2 |
| SWEE | ≤ 0.2 |
| PWIM | ≤ 0.2 |
| YKPS | ≤ 0.2 |
| MACK | ≤ 0.2 |
| RLRV | ≤ 0.2 |
| VMVT | ≤ 0.2 |
| RFKK | ≤ 0.2 |
| WWNC | ≤ 0.2 |
| NPHC | ≤ 0.2 |
| YHPF | ≤ 0.2 |
| GTQK | ≤ 0.2 |
| GSNR | ≤ 0.2 |
| WHKV | ≤ 0.2 |
| DGQS | ≤ 0.2 |

| Variant | one-hybrid fitness for binding NBS DNA |
| --- | --- |
| RWQT | ≤ 0.2 |
| RQES | ≤ 0.2 |
| LCIF | ≤ 0.2 |
| RYYA | ≤ 0.2 |
| KKGK | ≤ 0.2 |
| DPSR | ≤ 0.2 |
| LIKQ | ≤ 0.2 |
| TKAT | ≤ 0.2 |
| CCRT | ≤ 0.2 |
| WHNG | ≤ 0.2 |
| GQNC | ≤ 0.2 |
| PENT | ≤ 0.2 |
| HKRE | ≤ 0.2 |
| QCNE | ≤ 0.2 |
| RKPD | ≤ 0.2 |
| MTPF | ≤ 0.2 |
| MCRT | ≤ 0.2 |
| ARTD | ≤ 0.2 |
| QNLV | ≤ 0.2 |
| QWLG | ≤ 0.2 |
| TIAR | ≤ 0.2 |
| RTYY | ≤ 0.2 |
| RECG | ≤ 0.2 |
| MCGT | ≤ 0.2 |

| Variant | one-hybrid fitness for binding NBS DNA |
| --- | --- |
| NSHE | ≤ 0.2 |
| WCTC | ≤ 0.2 |
| DAEC | ≤ 0.2 |
| SACC | ≤ 0.2 |
| NVIK | ≤ 0.2 |
| STKV | ≤ 0.2 |
| CCVT | ≤ 0.2 |
| KTAC | ≤ 0.2 |
| PHEA | ≤ 0.2 |
| RNPR | ≤ 0.2 |
| DNYL | ≤ 0.2 |
| HSSL | ≤ 0.2 |
| SMAE | ≤ 0.2 |
| WVDT | ≤ 0.2 |
| HDTF | ≤ 0.2 |
| NSNS | ≤ 0.2 |
| RACF | ≤ 0.2 |
| MRTA | ≤ 0.2 |
| EDAG | ≤ 0.2 |
| KVRC | ≤ 0.2 |
| EMQL | ≤ 0.2 |
| CQNL | ≤ 0.2 |
| MQYS | ≤ 0.2 |
| PAKH | ≤ 0.2 |

| Variant | one-hybrid fitness for binding NBS DNA |
| --- | --- |
| RGCQ | ≤ 0.2 |
| RSWC | ≤ 0.2 |
| EGSL | ≤ 0.2 |
| SWNC | ≤ 0.2 |
| QMKQ | 0.417 |
| QKPM | ≤ 0.2 |
| MDDS | ≤ 0.2 |
| GQGY | ≤ 0.2 |
| ECIL | ≤ 0.2 |
| NNSS | ≤ 0.2 |
| IPAS | ≤ 0.2 |
| ANLF | ≤ 0.2 |
| SEMD | ≤ 0.2 |
| PPKR | ≤ 0.2 |
| LVNA | ≤ 0.2 |
| SNMY | ≤ 0.2 |
| DLVA | ≤ 0.2 |
| IQCC | ≤ 0.2 |
| HHAM | ≤ 0.2 |
| NQNL | ≤ 0.2 |
| ALCT | ≤ 0.2 |
| GTQF | ≤ 0.2 |
| QQLG | ≤ 0.2 |
| REVF | ≤ 0.2 |

| Variant | one-hybrid fitness for binding NBS DNA |
| --- | --- |
| RTDL | ≤ 0.2 |
| NQPN | ≤ 0.2 |
| MEKA | ≤ 0.2 |
| LNWS | ≤ 0.2 |
| ASDN | ≤ 0.2 |
| RPCY | ≤ 0.2 |
| SKVL | ≤ 0.2 |
| AKKC | ≤ 0.2 |
| ARTC | ≤ 0.2 |
| TSFC | ≤ 0.2 |
| RPGV | ≤ 0.2 |
| SICG | ≤ 0.2 |
| IEIS | ≤ 0.2 |
| QRRA | 0.674 |
| DMFG | ≤ 0.2 |
| DLKS | ≤ 0.2 |
| SRYQ | ≤ 0.2 |
| MIYT | ≤ 0.2 |
| YLDY | ≤ 0.2 |
| HNVA | ≤ 0.2 |
| QLRH | 0.452 |
| IDNY | ≤ 0.2 |
| TYLC | ≤ 0.2 |
| RLHL | ≤ 0.2 |

| Variant | one-hybrid fitness for binding NBS DNA |
| --- | --- |
| HQNF | ≤ 0.2 |
| QRNW | 0.326 |
| DSFR | ≤ 0.2 |
| LCCW | ≤ 0.2 |
| RQCD | ≤ 0.2 |
| GQCS | ≤ 0.2 |
| QKSR | 0.65 |
| SIYG | ≤ 0.2 |
| EEPL | ≤ 0.2 |
| NHRV | ≤ 0.2 |
| RTWT | 0.356 |
| ILWC | ≤ 0.2 |
| QSMQ | ≤ 0.2 |
| APQD | ≤ 0.2 |
| AHKA | ≤ 0.2 |
| PKKG | ≤ 0.2 |
| WFVG | ≤ 0.2 |
| DPCI | ≤ 0.2 |
